# This is one part of the list. These are further read-outs of the screen, such as a control signal, another cell line or another target. No call is given for them. Compounds called inactive in the main read-out are mostly missing here. The note in brackets gives the kind of curve behind each potency; many fits are weak.
# Legend:
# [1] = target: Histamine N-methyltransferase (Homo sapiens) (UniProt P50135); assay: Confirmatory Screen for Target Class Profiling of Small Molecule Inhibitors of Methyltransferases (AID 1745852); conditions: MTase-Glo luminescence, SAH detection, recombinant enzyme; measured here: HNMT inhibition potency;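 note: inhibitor potency for blocking SAH production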
# [2] = target: Nicotinamide N-methyltransferase (Homo sapiens) (UniProt P40261); assay: as above; conditions: MTase-Glo luminescence, SAH detection, recombinant enzyme; measured here: NNMT inhibition potency
# Tags give direction and shape of the fitted curve.
# UniProt P40261, sequence (P40261 whole entry, looked up): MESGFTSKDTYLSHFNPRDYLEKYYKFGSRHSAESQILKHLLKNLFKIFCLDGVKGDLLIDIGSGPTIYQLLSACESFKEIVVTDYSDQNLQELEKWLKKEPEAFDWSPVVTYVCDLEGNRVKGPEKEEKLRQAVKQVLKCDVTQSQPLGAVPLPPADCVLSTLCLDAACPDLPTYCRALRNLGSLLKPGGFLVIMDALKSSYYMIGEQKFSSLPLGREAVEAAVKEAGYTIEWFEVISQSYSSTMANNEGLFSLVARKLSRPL
# UniProt P50135, sequence (P50135 whole entry, looked up): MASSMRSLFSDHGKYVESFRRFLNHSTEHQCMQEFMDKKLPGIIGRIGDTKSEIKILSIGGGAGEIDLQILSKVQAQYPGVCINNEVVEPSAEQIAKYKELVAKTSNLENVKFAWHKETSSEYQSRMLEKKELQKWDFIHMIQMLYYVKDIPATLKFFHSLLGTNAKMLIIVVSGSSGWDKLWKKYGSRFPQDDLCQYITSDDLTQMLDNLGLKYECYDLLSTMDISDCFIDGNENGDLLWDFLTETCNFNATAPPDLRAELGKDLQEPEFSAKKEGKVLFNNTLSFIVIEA
Compound,IC50 [1],IC50 [2]
COc1ccc(-c2[nH]ncc2CN2CC[C@H]3CC[C@@H](C2)N3)cc1,"19.2 µM [falling, partial curve]",
COc1ccc(-c2cc3nc4c(c(=O)n3[nH]2)CN(C(=O)CN(C)S(=O)(=O)c2cnc[nH]2)CC4)cc1,"27.1 µM [falling, partial curve, poor fit]","19.2 µM [falling, partial curve, poor fit]"
CCNc1ncc(CN2CCN(c3ccncc3)CC2)cn1,"19.2 µM [falling, partial curve]",
COc1cc(/C=C2\CCCN([C@@H](C)c3ccc(F)cc3)C2=O)ccc1-n1cnc(C)c1,"21.5 µM [falling, partial curve]","27.1 µM [falling, partial curve, poor fit]"
CC(C)c1cc2c(N3CCN(C4=NCC(C)(C)S4)CC3)ncnc2s1,"21.5 µM [falling, partial curve]","19.2 µM [falling, partial curve]"
NCC(CNc1nc(Nc2cccc(NC(=O)N3CCCC3)c2)ncc1I)C(=O)c1cccs1 (configuration not stated),"24.1 µM [falling, partial curve]","21.5 µM [falling, partial curve]"
Cn1ccc2c(C(=O)NCCc3cnc[nH]3)nc(-c3ccc(N4CCOCC4)cc3)cc21,"31.2 µM [falling, partial curve]",
CCN(CC)CCCNC(=O)CCc1nnc2n(Cc3ccccc3)c(=O)c3ccccc3n12,"19.2 µM [falling, partial curve]",
